Experimental data from publication PMC6212790.
The other results are listed elsewhere or left out. At the low end of the ranking the order means little.
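Also: rank score from −0.5 (least bound) to 0.5 (best bound).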

These sequences were tested against T1, GST-Rok-C97-191 (UniProt O34857) (assay: protein binding microarray). Conditions: Rok is a gene silencer of Bacillus subtilis; high values mean tight binding; most listed sequences are background and not binding sites; double strand, one strand shown.
T1 sequence: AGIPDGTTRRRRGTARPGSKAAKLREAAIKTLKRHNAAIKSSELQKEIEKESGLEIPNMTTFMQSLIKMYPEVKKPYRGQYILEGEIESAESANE
ACAGGTCT showed a binding signal of -0.135 E-score. With ATATCACA the binding signal was 0.142 E-score. AGTTTGAG was tested, and the binding signal was 0.014 E-score. In the case of AAATCGGA, the binding signal is reported as -0.0443 E-score. Work on GAGAAATA yielded a binding signal of 0.345 E-score. For AAAAACGA, the binding signal was -0.00048 E-score. Sequence GAGTTGGC has a binding signal of -0.11 E-score. CCGAGTTA gave a binding signal of 0.272 E-score. In the case of CAAAAGTA, the binding signal is reported as 0.233 E-score. With AATGCTTC the binding signal was -0.0613 E-score. In the case of CCCATCAC, the binding signal is reported as -0.0947 E-score. With ACTCACAA the binding signal was -0.0122 E-score. With CCGGCCGC the binding signal was -0.167 E-score. With CCTTCCTC the binding signal was -0.248 E-score. In the case of GGTGATCA, the binding signal is reported as -0.248 E-score. With AGGTACTC the binding signal was -0.011 E-score. For AAGGATCA, the binding signal was -0.0571 E-score. AATGACCT showed a binding signal of -0.0442 E-score. ACGTCGAT gave a binding signal of 0.108 E-score. Sequence AGTGTAGA has a binding signal of 0.243 E-score. ACGCTAAC was tested, and the binding signal was -0.136 E-score. With AAAATTAC the binding signal was 0.327 E-score. AAGTTTCC was tested, and the binding signal was 0.148 E-score. For CATTAGCG, the binding signal was 0.196 E-score. ATCCCTCG showed a binding signal of -0.11 E-score. Work on GCGTATCA yielded a binding signal of 0.0707 E-score. Sequence GACAAGGC has a binding signal of -0.188 E-score. Sequence GAATTGGA has a binding signal of 0.082 E-score. With GCGCATCC the binding signal was -0.307 E-score. ATATCAGG gave a binding signal of 0.0706 E-score. CATGCTGG was tested, and the binding signal was -0.158 E-score. GTCGGGCA showed a binding signal of -0.133 E-score. ATTAATTA gave a binding signal of 0.391 E-score. CGACGTTA showed a binding signal of 0.108 E-score. CCATTTCC gave a binding signal of -0.102 E-score. Work on CACCTAGC yielded a binding signal of -0.169 E-score. Sequence AAAGGGAG has a binding signal of -0.241 E-score. In the case of ACCCTACC, the binding signal is reported as -0.0495 E-score. In the case of AACTATGG, the binding signal is reported as 0.133 E-score. ACTTACTA was tested, and the binding signal was 0.301 E-score. In the case of CGCGTGAC, the binding signal is reported as -0.14 E-score. CCAGTCCC was tested, and the binding signal was -0.292 E-score. In the case of CATACTTA, the binding signal is reported as 0.0391 E-score. AGCTGGGA showed a binding signal of -0.105 E-score. AATGATTA was tested, and the binding signal was 0.0681 E-score. GCTTTCAA was tested, and the binding signal was -0.116 E-score. Work on CTAACCTA yielded a binding signal of 0.233 E-score. Sequence CGAGCGAC has a binding signal of -0.11 E-score. In the case of ATCTACGG, the binding signal is reported as 0.0258 E-score. CTTCTATC showed a binding signal of 0.241 E-score. For ATCCGGCA, the binding signal was -0.0342 E-score. Work on GCACACGC yielded a binding signal of -0.121 E-score. Work on AACAGAGG yielded a binding signal of -0.0648 E-score. CTCAACCA showed a binding signal of -0.0917 E-score. Work on TAATTCAA yielded a binding signal of 0.168 E-score. Sequence ACACGCGC has a binding signal of -0.245 E-score. With GAGCACCA the binding signal was -0.134 E-score. With AAACCTAG the binding signal was 0.149 E-score. In the case of CGGAGCCG, the binding signal is reported as -0.226 E-score. ACCCTAAC gave a binding signal of -0.264 E-score. CCGATCGA showed a binding signal of -0.102 E-score. For GTGATCGA, the binding signal was -0.128 E-score. AAATCGTG was tested, and the binding signal was 0.0607 E-score. Sequence ACAAGATA has a binding signal of 0.302 E-score. ATTACGTC gave a binding signal of 0.162 E-score. AAAAGATC was tested, and the binding signal was 0.0387 E-score. With ATGACCCA the binding signal was -0.129 E-score. In the case of GACCGACC, the binding signal is reported as -0.0917 E-score. For AACCTGCC, the binding signal was -0.234 E-score. In the case of AGGCAATA, the binding signal is reported as 0.0316 E-score. ATGGCCGA showed a binding signal of -0.0882 E-score. For CGTTTTAC, the binding signal was -0.0888 E-score. TGTACGAA gave a binding signal of 0.113 E-score. For CATTTAGG, the binding signal was -0.0729 E-score. For AACGCCCA, the binding signal was -0.278 E-score. With AATCCATC the binding signal was -0.0998 E-score. TATACAAA showed a binding signal of 0.347 E-score. For AAGCACAA, the binding signal was 0.035 E-score. CCAACGCG showed a binding signal of -0.329 E-score. For CTCGACAG, the binding signal was -0.196 E-score. AGGTGACG gave a binding signal of -0.157 E-score. CAGACCTC was tested, and the binding signal was -0.147 E-score. CGTTTCGC was tested, and the binding signal was -0.171 E-score. In the case of ACCACTTG, the binding signal is reported as 0.127 E-score. CCGTTACC showed a binding signal of -0.0467 E-score. With GCTATTCC the binding signal was -0.0878 E-score. AGGATAAC showed a binding signal of 0.000611 E-score. Work on AGTCCCCG yielded a binding signal of -0.217 E-score. In the case of GCGTTCGA, the binding signal is reported as -0.142 E-score. In the case of CATACTAG, the binding signal is reported as 0.285 E-score. GTACCGCA showed a binding signal of 0.123 E-score. Sequence AGTACCAC has a binding signal of 0.0678 E-score. GGCACGAA gave a binding signal of -0.261 E-score. CACCAATC gave a binding signal of -0.13 E-score. GATATCAA was tested, and the binding signal was 0.158 E-score. AAAACCCG gave a binding signal of 0.00714 E-score. With AGCTGCAT the binding signal was -0.0626 E-score. GAGAAGAA gave a binding signal of 0.045 E-score. Sequence GTAGGCAA has a binding signal of 0.0486 E-score. Sequence CTGCTGAA has a binding signal of 0.0789 E-score. Work on ATATGCCG yielded a binding signal of 0.0854 E-score. For AGGTGCAC, the binding signal was -0.191 E-score. Work on ACGCTGAT yielded a binding signal of -0.0219 E-score. With CCCACTCG the binding signal was -0.0304 E-score. AAACTACG gave a binding signal of 0.387 E-score. GTAGCTAA gave a binding signal of 0.346 E-score. GGTAGGGA was tested, and the binding signal was 0.0672 E-score. ACCAAACA was tested, and the binding signal was -0.0468 E-score. AGCACTCG showed a binding signal of -0.17 E-score. AGGCGACC gave a binding signal of -0.134 E-score. Sequence ACGCATAA has a binding signal of -0.107 E-score. AACGCGCT was tested, and the binding signal was 0.141 E-score. Sequence AATTCTTA has a binding signal of 0.162 E-score. In the case of CCGGGCTA, the binding signal is reported as -0.171 E-score. GCCGTGTA gave a binding signal of -0.0117 E-score. With CGAGCAAC the binding signal was -0.105 E-score. With ACCATAGA the binding signal was 0.01 E-score. TGAAGTAA gave a binding signal of 0.132 E-score. CTGGTGCC gave a binding signal of -0.162 E-score. ACATAAGG showed a binding signal of 0.0979 E-score. ATAGAGCC gave a binding signal of -0.0348 E-score. CCTTGCGC gave a binding signal of -0.237 E-score. With CCTGACAG the binding signal was -0.0267 E-score. Work on AAAATGCG yielded a binding signal of 0.0254 E-score. GGATCTTA was tested, and the binding signal was 0.114 E-score. CAACGTGG was tested, and the binding signal was 0.0295 E-score. TGTCGACA gave a binding signal of -0.101 E-score. AGGGAGAA showed a binding signal of -0.282 E-score. Sequence CGAAATAC has a binding signal of 0.275 E-score. ACTCGCTG was tested, and the binding signal was -0.131 E-score. AGTCGCGG was tested, and the binding signal was -0.162 E-score. With AATAGCTG the binding signal was 0.186 E-score. CATGACCA was tested, and the binding signal was -0.218 E-score. With GGACTATA the binding signal was 0.0884 E-score. In the case of ATAAGCGA, the binding signal is reported as -0.0501 E-score. GAACCCCA showed a binding signal of -0.195 E-score. AAAGCTCA gave a binding signal of 0.0914 E-score. In the case of AGTACATA, the binding signal is reported as 0.291 E-score. GGTAATCA gave a binding signal of -0.186 E-score. AGCCTCAC gave a binding signal of -0.174 E-score. ACGGGACC gave a binding signal of -0.104 E-score. CAGGGTAC was tested, and the binding signal was -0.111 E-score. Sequence AGTAAGGC has a binding signal of 0.0133 E-score. For AATACATT, the binding signal was 0.267 E-score. Work on TACTTTGA yielded a binding signal of 0.121 E-score. Work on CCGTGGCG yielded a binding signal of -0.18 E-score. In the case of CCATAGAC, the binding signal is reported as -0.0974 E-score. For GCCCACAA, the binding signal was -0.0476 E-score. With CTTAACGA the binding signal was -0.149 E-score. GACGATAC gave a binding signal of 0.123 E-score. With ATGATTCG the binding signal was -0.0774 E-score. Sequence TCATCACA has a binding signal of 0.0668 E-score. In the case of AGTTAGTA, the binding signal is reported as 0.287 E-score. With GTCTGCGA the binding signal was -0.0347 E-score. Work on GGCATCGA yielded a binding signal of -0.0223 E-score. In the case of ACACGCCG, the binding signal is reported as -0.172 E-score. CTTATATA showed a binding signal of 0.321 E-score. Work on AGCTTAAT yielded a binding signal of 0.115 E-score. AGCATTAT was tested, and the binding signal was 0.13 E-score. Sequence CACGTGTA has a binding signal of 0.0319 E-score. For CTAAGCCA, the binding signal was -0.182 E-score. For GCCCGTCC, the binding signal was -0.0772 E-score. CGGACATA gave a binding signal of 0.144 E-score. In the case of ACGATCAT, the binding signal is reported as -0.0749 E-score. CGTTTGAC was tested, and the binding signal was -0.0968 E-score. AATACCTG showed a binding signal of 0.044 E-score. Work on CGTTATCA yielded a binding signal of 0.165 E-score. Work on GGTTTATA yielded a binding signal of 0.167 E-score. Sequence ATGGACTA has a binding signal of 0.0139 E-score. For TAGAGCCA, the binding signal was -0.133 E-score. With AAGAATAA the binding signal was 0.138 E-score. Work on CTGATGGA yielded a binding signal of -0.122 E-score.
